The campaign covered roughly 48,000 compounds. About 450 (0.94%) were called active. Roughly 19% stayed inconclusive and do not appear here. The call rests on the fitted dose curve; in most records, active means well fitted inhibition curve with a large enough effect; inconclusive means small, poorly fitted or top-dose-only effect; inactive means no such curve, though single readings can be large or run the other way. The list shows a part of the results.
assay: Primary qHTS for Identification of Small Molecule Inhibitors of Huntingtin Promoter Activity; settings: HEK293 HTT promoter firefly luciferase reporter (activity 0% = vehicle and -100% = no light), 24 h; series mostly up to 57.5 µM; activity change, negative = inhibition: at the top concentration; further: nearly all actives have a fitted effect of over 50% in size
Method in brief: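 Firefly luciferase readout (Dual-Glo, 10 min RT) after 24 h, 37 °C compound exposure (final up to 57.5 uM) of HEK293 reporter cells cultured 24 h beforehand; PTC124 at 50 uM final as control inhibitor; activity scaled vehicle 0%, zero RLU -100%.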

Activity change, negative = inhibition, inactive:
COc1ccc(-c2nc(S(=O)(=O)c3ccc(C)cc3)c(N3CCCCC3)o2)cc1 2.18%, Cc1ccc(CNC(=O)CN2C(=O)CC(c3ccc(C)c(C)c3)=Nc3ccccc32)cc1 8.65%, CCCCOC(=O)c1ccc(Nc2ncnc3c2cnn3-c2cccc(C)c2)cc1 -14.7%, Cc1cccc(CN2CCC(CNc3ncnc4onc(-c5ccc(Cl)cc5)c34)CC2)c1 -22.4%, COc1ccc(NC(=O)C2CCCN(S(=O)(=O)c3cccc4nonc34)C2)cc1Cl (configuration not stated) -17%, Cn1cnc([N+](=O)[O-])c1Sc1ncnc2nc[nH]c12 -32.5%, Clc1cccc(-n2cc(-c3ccccc3)c3c(NC4CCCC4)ncnc32)c1 -22%, Cc1ccc(-c2nnc3c4ccccc4c(C)nn23)cc1NC(=O)c1cccc(Br)c1 -2.4%, O=C(NCc1cccc(Cl)c1)NCc1noc2ccccc12 2.41%, COc1cccc(N2CCN(c3ncnc4c3c(-c3ccccc3)cn4-c3ccc(F)cc3)CC2)c1 -16.8%, CCCCN(CC)C(=O)CCCn1c(=O)c2cccn2c2ccccc21 -6.16%, COc1ccc(CNC(=O)CCNS(=O)(=O)c2ccc3c(c2)CCCC(=O)N3)cc1 -24.8%, Cc1ccc(Cn2c(CCNC(=O)C(C)C)nc3ccccc32)cc1 21%, O=C(Cn1nc(-c2ccc(Cl)cc2)ccc1=O)NCCc1ccccc1 -3.18%, CCOC(=O)CCc1c(C)nc2c(c(C)nn2-c2ccc(C)cc2)c1C -4.91%, O=C(C1CCC1)N1CCc2cc(S(=O)(=O)NCCc3ccccc3)ccc21 -25.9%, Cc1cccc(CSc2ncccc2C(=O)O)c1 26.5%, CCOc1ccccc1NC(=O)Cn1c(=O)n(C(C)C)c(=O)c2oc3ccccc3c21 -6.3%, COc1ccc(-n2c(=O)c3ccc(C(=O)NCc4ccc(C)cc4)cc3n(Cc3ccc(Cl)cc3)c2=O)cc1 -7.66%, COCCn1c(C)cc(O)c(C(c2ccc(F)cc2)N2CCC(C)CC2)c1=O (configuration not stated) -7.74%, COc1ccc(-n2nc3c(N4CCCC(C(=O)NCCc5ccccc5C)C4)nnc(C)c3c2C)cc1 (configuration not stated) -17.6%, Cc1ccc(N(CC(=O)Nc2ccc(C)c(Cl)c2)S(=O)(=O)c2cccs2)cc1 -24.7%, COc1cccc(NC(=O)Cn2c(=O)n(-c3ccccc3)c(=O)c3c2c2cc(OC)ccc2n3C)c1 -19.2%, O=S(=O)(c1ccc(-c2cnc(C3CC3)o2)cc1)N1CCN(c2ccccc2)CC1 -17.8%, CCc1cccc(NC(=O)c2ccc3c(c2)c(C)c(C)n3Cc2ccc(F)cc2)c1 -27.3%, CCOc1ccccc1NC(=O)c1c(NC(=O)Cc2ccc(OC)cc2)sc2c1CCC2 27.9%, Cc1ccccc1OCC(=O)OCc1cc(=O)n2nc(-c3cccs3)sc2n1 -5.49%, COc1ccccc1CNC(=O)c1nnn(CC(=O)Nc2c(C)cccc2C)c1N -2.15%, Cn1c(C(=O)Nc2ccc(OC(F)(F)F)cc2)cc2c(=O)n3ccccc3nc21 -0.0413%, Cc1ccc(CNC(=O)CN2N=C(c3ccccc3)CCC2=O)cc1 3.83%, Cc1cccc(CSc2nnc3[nH]c(=O)cc(-c4ccccc4)n23)c1 -10.4%, Cc1cc(NC(=O)C2CCCN(S(=O)(=O)c3cccc4nsnc34)C2)ccc1Br (configuration not stated) -0.284%, O=C(Nc1cc(Cl)cc(Cl)c1)c1ccc(F)c(S(=O)(=O)N2CCN(c3ccccc3F)CC2)c1 -14.9%, CCOc1ccc(NC(=O)N2CCC(N3CCCCC3)CC2)cc1 6.95%, Cc1ccc(NC(=O)COc2ccc3oc4c(c3c2)CCCC4)cc1C -3.18%, Cc1ccc(CN2COc3c(Cl)cc4c(-c5ccccc5)cc(=O)oc4c3C2)cc1 -0.59%, O=C(CN1C(=O)COc2ccc(S(=O)(=O)N3CCOCC3)cc21)N1CCN(c2ccccc2F)CC1 -12.2%, Cc1ccc(NC(=O)C(=O)NCC2(c3ccccc3)CCCC2)cc1C 6.67%, CCc1cccc(NC(=O)c2c(C)oc3nc(C)nc(N4CCCC4)c23)c1 -7.31%, CCCOc1ccc(CNC(=O)CN2C(=O)c3cccnc3Oc3ccc(C)cc32)cc1 10.9%, Nc1nc2ncc(CNc3ccc(C(=O)N[C@@H](CCC(=O)O)C(=O)O)cc3)nc2c(=O)[nH]1 5.94%, COC(=O)C1CCN(c2csc3ccc(Cl)cc3c2=O)CC1 11.7%, CCC[C@H](N[C@@H](C)C(=O)N1[C@@H]2CCCC[C@H]2C[C@H]1C(=O)O)C(=O)OCC -2.06%, O=C(NCCCO)c1nn(-c2ccc(Cl)cc2)nc1CO 0.994%, CCOc1ccc2oc(=O)cc(CN3CCN(c4ccccc4OC)CC3)c2c1 -12.2%, CCc1ccc(OCc2cc(=O)n3cc(C)sc3n2)cc1 -1.37%, COc1cc(OC)c(OC)cc1CNCCCSc1nnnn1C -6.47%, COc1cccc(NC(=O)Cn2c(=O)n(CCc3ccc(OC)c(OC)c3)c(=O)c3ccccc32)c1 -2.65%, CC(C)[C@H](CO)Nc1nc(Nc2ccc(C(=O)O)c(Cl)c2)c2ncn(C(C)C)c2n1 -4.8%, CCc1ccc(NCc2cc3ccc(OC)cc3n(CC(=O)Nc3ccc(C)c(Cl)c3)c2=O)cc1 -18.5%, COc1ccc(C(=O)N(Cc2cc(OC)c(OC)c(OC)c2)C2CCS(=O)(=O)C2)cc1Cl (configuration not stated) -9.45%, CC(C)Oc1ccc(CNC(=O)Cn2nc(N3CCN(c4ccccc4)CC3)ccc2=O)cc1 -15.2%, Cn1cc(S(=O)(=O)N2CCOCC2)cc1C(=O)Nc1cccc(C#N)c1 -2.09%, CCC(=O)N1CCc2cc(OC)c(OC)cc2C1COc1ccc2c(C)cc(=O)oc2c1 (configuration not stated) -13.3%, CC(C)c1ccc(CNc2n[nH]c(-c3ccco3)n2)cc1 30.3%, COCCNC(=O)C1=CC(c2ccc3c(c2)OCO3)=NS(=O)(=O)N1C -15.2%, COc1ccc(C2c3c(n(C)c4ccccc34)C(=O)N2CC(=O)Nc2ccc(F)cc2)cc1 (configuration not stated) -20.6%, Cc1ccc(C(=O)c2oc3ccccc3c2NC(=O)Cc2ccccc2)cc1 -4.55%, Cc1ccc(CSc2nc(-c3ccccc3C)nc3c2Cc2c(CO)cnc(C)c2O3)cc1 -12.4%, COc1ccc(-c2ccc(=O)n(CC(=O)Nc3ccc(OC)c(OC)c3)n2)cc1 -28%, CCOc1ccc(-c2nc(SCC(=O)Nc3cc(F)ccc3F)n3[nH]c(=O)cc3n2)cc1 -4.78%, CCn1nnc2cc(C(=O)Nc3ccc(Br)cc3F)ccc21 21.4%

Source: PubChem BioAssay AID1508623 (National Center for Advancing Translational Sciences (NCATS), 2021)
